# Publication PMC12136788
# The list shows a part of the results.
# T1: UNK ZnF1-6 (called full-length) (human, UniProt Q9C0B0 30-357)
# T1 sequence: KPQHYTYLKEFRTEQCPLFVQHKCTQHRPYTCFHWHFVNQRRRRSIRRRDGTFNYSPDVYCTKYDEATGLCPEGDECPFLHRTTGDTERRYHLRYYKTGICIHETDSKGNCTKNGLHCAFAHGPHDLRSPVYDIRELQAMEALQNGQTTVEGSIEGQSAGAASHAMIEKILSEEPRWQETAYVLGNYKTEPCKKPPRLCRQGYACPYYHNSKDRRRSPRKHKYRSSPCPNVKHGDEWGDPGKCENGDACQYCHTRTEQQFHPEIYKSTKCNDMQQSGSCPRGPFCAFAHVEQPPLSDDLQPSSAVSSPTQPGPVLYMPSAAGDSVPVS
# B1: chr20:37404728:37404829:+|3pUTR|ENSG00000197122|msi1|FALSE|unique (ssRNA)
# RNA: GGGAGUUCUACAGUCCGACGAUCGGCCUCUGCAACUGCUCAGCUCUGGUCCAGGCCCUGUGGCAGGACACACAUGGUGAGCCUAGCCCUGGGACAUCAGGAGACUGGGCUCUGGCUCUGUUCGGCCUUUGGGUGUGUGGUGGACAACAGAGGAUUGAGCAUCA
# B2: chr10:68791452:68791550:+|3pUTR|ENSG00000060339|msi1_unk|FALSE|overlapping (ssRNA)
# RNA: GGGAGUUCUACAGUCCGACGAUCCUAGCCUUCAAAUUAUUAAACACUCCUUGAGUGAAAUAAUUUUGCAUUGCAAAGUGUUUUAGGAUGAACUUUGUUAUAGUUUUAACUCCAAUAAAGUUCAUCAGUUUAAUUGACUGUAGUCAACAGAGGAUUGAGCAUCA
# B3: chr9:128810308:128810409:+|3pUTR|ENSG00000107021|unk|total|mutant (ssRNA)
# RNA: GGGAGUUCUACAGUCCGACGAUCUACAGAUUGAGCUGUAUGAAUUCAGCGGGUCUCACUCCAGAGGGUCAGAACGUUUGCUUCCGUUUUUUCAUCUGUUUUGUUCCUUGAGUCAGUGCUGUUGAUGACGAGUUGUCUUGAAUACAACAGAGGAUUGAGCAUCA
# B4: chr5:150649000:150649101:+|CDS|ENSG00000171992|msi1|FALSE|bound_elsewhere (ssRNA)
# RNA: GGGAGUUCUACAGUCCGACGAUCCAGGCCUUUUGGGAUCCAGGCGCCAGGGGGCACCAGCCAGAUGGAGAGGAGCCCCAUGCUAGAGAGACGACAUUUUGGGGAGAAGGCCCCGGCUCCCCAGCCCCCCAGUUUGCCAGACAGCAACAGAGGAUUGAGCAUCA
# B5: chr4:186618492:186618593:-|CDS|ENSG00000083857|msi1|total|mutant (ssRNA)
# RNA: GGGAGUUCUACAGUCCGACGAUCGUAAUCACUACAAAGGAGAGCCUCAUUGGCUUGGAAAAUGAAUUCUUCACUUUCUUUGUCCGAGCUGUGGAUAAUGGGUCUCCAUCAAAAGAAUCUGUUGUUCUUGUCUAUGUUAAAAUCCAACAGAGGAUUGAGCAUCA
# B6: ENSG00000198589:be:win_4501|CDS|ENSG00000198589|bound_else_gene|NA|bound_elsewhere_windowed (ssRNA)
# RNA: GGGAGUUCUACAGUCCGACGAUCAGAGAUCUUGACAGGCUUCUACAGGACAUGGAUAUUAAUCGGCUUAGGGCAGUUGUUUUCAGAGACAUAGAGGAUAGCAAACAAGCUCAAUUUUUAGCCUUGGCAGUAGUAUACUUUAUCCAACAGAGGAUUGAGCAUCA
# B7: chr11:8612036:8617995:-|three_prime_utr|ENSG00000166436|control|control|control (ssRNA)
# RNA: GGGAGUUCUACAGUCCGACGAUCCCCAUACUGUCGACCAUUCCUCCCCAUCUUGCAGCUUAUCCUCUUCAGAGUGUGGAUGGUAGAUGAGUCUUGUUGAACUGUGUAGUGCUCUUCUUUGCCAUUUGCAUCUACAGCAUUUAUCAACAGAGGAUUGAGCAUCA
# B8: chr14:106537809:106538116:-|CDS|ENSG00000211964|control|control|control (ssRNA)
# RNA: GGGAGUUCUACAGUCCGACGAUCUGGGUCCGCCAGGCUCCAGGGAAGGGGCUGGAGUGGGUUUCAUACAUUAGUAGUAGUGGUAGUACCAUAUACUACGCAGACUCUGUGAAGGGCCGAUUCACCAUCUCCAGAGACAACGCCCAACAGAGGAUUGAGCAUCA
# B9: chr7:13894654:13894755:-|3pUTR|ENSG00000006468|msi1|total|mutant (ssRNA)
# RNA: GGGAGUUCUACAGUCCGACGAUCUAUUCUCUUUCAUGCUGAAUUUACUAUGACCAUUUAUAAGCAGUGCAGUUAACUACAGACCGCAUUUCAGGACAAAACCGAUGACUCAAACCAUUUAUUGCUUAAAAAACCGCUUACGCCCAACAGAGGAUUGAGCAUCA
# B10: ENSG00000198589:be:win_3451|CDS|ENSG00000198589|bound_else_gene|NA|bound_elsewhere_windowed (ssRNA)
# RNA: GGGAGUUCUACAGUCCGACGAUCGAUGACAAAUUAAUAUUUCAAGAAGGAAAACCUGUUACUGAAAAGCAAACUGAUACUGAAACUCAAGAUUCUAAAGAUUCUGGAAUUCAGACUAUGACAGCAUCAGGGUCUUCAGCUAUGCAACAGAGGAUUGAGCAUCA
# B11: chr6:75256125:75256201:-|CDS_3pUTR|ENSG00000112697|msi1_unk|total|mutant (ssRNA)
# RNA: GGGAGUUCUACAGUCCGACGAUCUUUGGGGAUUGCUUACAUCGCUGUUGGAUCCAUCUCCUUCCUUCUGGGAGUUGUACUGCCCGUAAUUAAUCAUAAAUACCGAAACAGCCGUAAUACAGCUGACAUUACCAUUUAAUUUUACAACAGAGGAUUGAGCAUCA
# B12: chrX:101625945:101626046:+|CDS|ENSG00000102401|unk|FALSE|unique (ssRNA)
# RNA: GGGAGUUCUACAGUCCGACGAUCAGGUUCACUUUUUUUCUUUUUAAAAGAAUUUCAAGUGUGUGCUGAUAAGGUUCUGGGAAUAGAAAGUCACCAUGAUUUUUUGGUGAAAGUAAAAGUUGGAAAAUUCAUGGCCAAACUUGCCAACAGAGGAUUGAGCAUCA
# B13: chr12:76028832:76028933:-|3pUTR|ENSG00000139289|msi1|FALSE|unique (ssRNA)
# RNA: GGGAGUUCUACAGUCCGACGAUCAAAGGAAAAGACUGGAUAAACACAGGAUUUUCAGUAAGAAAACAACCCCAGUCUUGUCUUAGAAGCCACUUGUUGAGGAGUCUGUUGGGGGAAAAAAGAGGAUAUGCUUUUAAAGGUAGACAACAGAGGAUUGAGCAUCA
# B14: ENSG00000070961:be:win_3301|CDS|ENSG00000070961|bound_else_gene|NA|bound_elsewhere_windowed (ssRNA)
# RNA: GGGAGUUCUACAGUCCGACGAUCCGGCGUGGCCAAAUCUUGUGGUUUAGAGGUCUGAACAGAAUCCAAACACAGAUUCGAGUGGUGAAUGCAUUUCGUAGUUCUUUAUAUGAAGGGUUAGAAAAACCGGAAUCAAGAAGUUCGCAACAGAGGAUUGAGCAUCA
# B15: chr6:41099391:41099486:+|3pUTR|ENSG00000001167|msi1_unk|total|mutant (ssRNA)
# RNA: GGGAGUUCUACAGUCCGACGAUCAGUGCUUAAGCUGCCAACAGUCCGAAGAUGCUAUUUAUUUGUGUCUGUAAGUUUGUACACCGUAAUGCCAGCCUUGUUGCUGAAUUUUUUAUUUGGGGGGAGAUGACUUUGAAUUUUGUUCAACAGAGGAUUGAGCAUCA
# B16: chr19:19111484:19111585:+|3pUTR|ENSG00000181035|msi1|total|mutant (ssRNA)
# RNA: GGGAGUUCUACAGUCCGACGAUCAGCCUCAUGUCUAUCCCCGACCCUGCAAGCAGCUGGGUCCCCAAGAGUGCAUCUCCCCCCCGAGUUGCCUGCCCAUGCCCACCUGCUUUGUAACCUUCCCAGGAGAUUCAUGCUUGCUCUCAACAGAGGAUUGAGCAUCA
# B17: chr15:82681419:82681580:-|CDS|ENSG00000103723|control|control|control (ssRNA)
# RNA: GGGAGUUCUACAGUCCGACGAUCCAGUGCCCUCCGUGUCCUCUCUAGCAUCCGUGUGCCCAUCAUAGUGCCCAUCAUGAUGCUAGCUAUCAAGGAAGCCGCCUCGGACAUGUCACCCUAUGUGCGGAAAACAGCUGCCCACGCCAACAGAGGAUUGAGCAUCA
# B18: chr7:20410991:20411126:+|3pUTR|ENSG00000105855|msi1|FALSE|unique (ssRNA)
# RNA: GGGAGUUCUACAGUCCGACGAUCAAAUUCUGCCUCAAGCAAAGUACCACAUUUUGAAUGUUUUCUUAGAUUUUGAUUGCAAGUAGAUAUCAGCAUUUUUUAAAUGAAAAGCUAUAUUAUCUUCUCCCUUCAAGGCAGCCUAAGCAACAGAGGAUUGAGCAUCA
# B19: chr17:58495858:58495960:-|CDS|ENSG00000108389|unk|total|mutant (ssRNA)
# RNA: GGGAGUUCUACAGUCCGACGAUCAGAAGAGACUAAGGGACCAGCUCCAGACCCUUCUGCCCAGGAUGAGCUGGGCCGGACUUCCGAUGGCACCGGGGAGCCACCUGAACAUUGUCCUGAAACAGAAGCUGUCAGUGCACUCUCCAACAGAGGAUUGAGCAUCA
# B20: ENSG00000198589:be:win_1501|CDS|ENSG00000198589|bound_else_gene|NA|bound_elsewhere_windowed (ssRNA)
# RNA: GGGAGUUCUACAGUCCGACGAUCUUGCUGGCCUUUAUCAUGGAAUUGUUGAAGAACUCAAUUGCUAUGCAGGAACAGAUGCUUGCCUGUAAGGGCUUCUUGGUAAUAGGAUAUAGCCUUGAAAAGUCUUCCAAAUCUCAUGUUCAACAGAGGAUUGAGCAUCA
# B21: chr9:26926431:26926536:-|CDS|ENSG00000137055|unk|FALSE|bound_elsewhere (ssRNA)
# RNA: GGGAGUUCUACAGUCCGACGAUCAGAGGUUUGGCAAUUUUGAGUGAAACAGAAUUUCUUUCCUGUGCAAAUGAUGCUAGUAUUAGAAGGUGGCAAAUCACUGGCGAGUGUCUUGAAGUAUAUUAUGGACAUACAAAUUAUAUUCAACAGAGGAUUGAGCAUCA
# B22: chr7:92618090:92618217:-|CDS|ENSG00000105810|unk|FALSE|bound_elsewhere (ssRNA)
# RNA: GGGAGUUCUACAGUCCGACGAUCUAUGUCCAUGUGUGGUUCUUUUGUAGCGUGAUUGGACUCCCAGGAGAAGAAGACUGGCCUAGAGAUGUUGCCCUUCCCAGGCAGGCUUUUCAUUCAAAAUCUGCCCAACCAAUUGAGAAGCAACAGAGGAUUGAGCAUCA
# Target: T1, UNK ZnF1-6 (called full-length)
# Experiment: nsRBNS (natural sequence RNA bind-n-seq); RBNS binding buffer (assumed for nsRBNS): 25 mM Tris pH 7.5, 150 mM KCl, 3 mM MgCl2, 0.01% Triton X-100, 500 ug/ml BSA, 20 U/ml SUPERase-In, 4 C; UNK is unkempt and MSI1 is Musashi-1; names of the RNAs are library labels; protein concentration not given here; high values mean tight binding
row,Binder,binding signal
1,B1,0.605 enrichment R
2,B2,0.607 enrichment R
3,B3,0.444 enrichment R
4,B4,1 enrichment R
5,B5,0.389 enrichment R
6,B6,1.57 enrichment R
7,B7,0.477 enrichment R
8,B8,0.714 enrichment R
9,B9,0.607 enrichment R
10,B10,0.481 enrichment R
11,B11,0.4 enrichment R
12,B12,0.389 enrichment R
13,B13,0.753 enrichment R
14,B14,0.535 enrichment R
15,B15,0.584 enrichment R
16,B16,0.82 enrichment R
17,B17,0.839 enrichment R
18,B18,0.416 enrichment R
19,B19,0.759 enrichment R
20,B20,0.416 enrichment R
21,B21,0.796 enrichment R
22,B22,0.56 enrichment R
